# In patent publication US10471118B2, “Retinylamine derivitives for treatment of ocular disorders” (CASE WESTERN RESERVE UNIVERSITY, priority 2014, dated 2019):
# Target: T1, NIH3T3 cells stably expressing LRAT and RPE65 (Homo sapiens, UniProt Q16518)
# T1 sequence (Q16518 1-533): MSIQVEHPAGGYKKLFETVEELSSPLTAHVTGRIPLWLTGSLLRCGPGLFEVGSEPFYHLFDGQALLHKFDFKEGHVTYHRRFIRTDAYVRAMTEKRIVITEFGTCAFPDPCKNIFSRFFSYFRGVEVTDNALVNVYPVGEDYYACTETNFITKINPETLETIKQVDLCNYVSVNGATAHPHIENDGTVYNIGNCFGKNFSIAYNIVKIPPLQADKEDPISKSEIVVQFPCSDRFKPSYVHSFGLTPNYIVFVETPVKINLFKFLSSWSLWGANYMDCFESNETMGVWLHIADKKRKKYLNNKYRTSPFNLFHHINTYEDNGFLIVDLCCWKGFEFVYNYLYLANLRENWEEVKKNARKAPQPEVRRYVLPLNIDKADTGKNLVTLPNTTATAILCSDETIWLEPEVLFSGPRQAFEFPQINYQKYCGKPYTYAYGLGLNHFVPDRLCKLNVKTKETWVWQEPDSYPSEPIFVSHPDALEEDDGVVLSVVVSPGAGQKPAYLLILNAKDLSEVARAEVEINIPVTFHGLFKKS
# Assay: NIH3T3 cell assay of 11-cis-retinol production
# Format: cell-based
# Description: The cells were plated in 6-well plates using Dulbecco's Modified Eagle Medium (DMEM) and allowed to grow to 90% confluency. The cells were then incubated with DMEM containing 10 μM all-trans-retinol and 4.5 μM retinylamine, or derivatives for 16 hours under dark room conditions. Control groups included a positive control (all-trans-retinol only) and a negative control (no treatment). Cells and medium were collected after 16 hours of incubation. Samples were treated with 2 ml of methanol, homogenized, and saponified with 1 M KOH at 37° C. for 2 hours prior to extraction with hexane. The resulting hexane phase was collected, dried using a SpeedVac, and redissolved in 250 μl of hexane, and retinoid composition was determined by normal phase HPLC.
# [1] = 10 μM all-trans-retinol and 4.5 μM drug, 16 h
compound,measurement,setting,value
"CC1=C(/C=C/C(C)=C/C=C/C(C)=C/CN)C(C)(C)CCC1 [Ret-NH2, (2E,4E,6E,8E)-3,7-dimethyl-9-(2,6,6-trimethylcyclohex-1-en-1-yl)nona-2,4,6,8-tetraen-1-amine, reference compound]",inhibition of 11-cis-retinol production,[1],inhibited isomerase activity and 11-cis-retinol production
same,inhibition of 11-cis-retinol production,growth medium supplemented with 3 μM Ret-NH2,nearly complete inhibition of 11-cis-retinol production
"CC1=C(/C=C/C(C)=C/C=C/C(C)=C/CNC(=O)[C@@H](N)Cc2ccccc2)C(C)(C)CCC1 [RF, (S)-2-amino-N-((2E,4E,6E,8E)-3,7-dimethyl-9-(2,6,6-trimethylcyclohex-1-en-1-yl)nona-2,4,6,8-tetraen-1-yl)-3-phenylpropanamide]",inhibition of 11-cis-retinol production,[1],partial inhibition of 11-cis-retinol production
